Results as given in PubChem BioAssay (Tox21).
Values joined by “and” are separate entries in the source; they are usually repeats but may differ in a detail not shown here. Identical values can stand only once. The shares of active, inactive and inconclusive entries below differ from those in the screen. Where the call is inconclusive, the potency comes from a doubtful curve fit. A structure can be active in one record and inactive in another. Active and inactive are the calls of the source. Calls follow the shape of the dose curve; as a rule, active = well fitted cell-killing curve with a large enough effect in the repeat runs; inconclusive = weak or mixed curves, or effect the other way; inactive = no such curve, though single readings can be large or run the other way.

Assay: qHTS assay for identifying genotoxic compounds that show differential cytotoxicity against isogenic chicken DT40 cell lines with known DNA damage response pathways - Rev3 mutant cell line (AID 743014); also: nearly all actives have a fitted effect of over 55% in size
Settings: chicken DT40 Rev3-/- viability, CellTiter-Glo, 40 h; activity, negative = cytotoxicity: at 68.4 µM (top of the series) unless noted
% is scaled to controls: 0 for no effect and ±100 for the full control effect; potency is read from the fitted curve at half-maximal effect; tags tell the direction and shape of the fitted curve.

| Structure (SMILES) | Potency | activity, negative = cytotoxicity |
| --- | --- | --- |
| CC(C)OC(=O)CCCCC(=O)OC(C)C | inconclusive: 61.3 µM [cytotoxic, partial curve, poor fit] | – |
| Cc1nc2ccccc2n1Cc1ccc(Cl)cc1 | active: 5.31 µM | – |
| FC(F)(F)C(Cl)Br (stereo not given) | inconclusive: 29.8 µM [rising, partial curve, poor fit] | – |
| C=CC(=O)NCOCCCC | inconclusive: 89 µM [cytotoxic, single point] | – |
| O=C(O)C1=NN(c2ccc(S(=O)(=O)O)cc2)C(=O)C1 | inconclusive: 27.3 µM [cytotoxic, partial curve, poor fit] | – |
| CC[C@H](C)[C@@H](C(=O)O)n1sc2ccccc2c1=O | inconclusive: 34.4 µM [cytotoxic, partial curve] | – |
| CCCCCCCC(=O)OCC(COC(=O)CCCCCCC)OC(=O)CCCCCCC | inactive | – |
| CCCOC(=O)c1ccc(N)cc1 | inconclusive: 23.7 µM [cytotoxic, partial curve] | – |
| COC(=O)c1ccc(I)cc1S(=O)(=O)NC(=O)Nc1nc(C)nc(OC)n1 | – | inactive: 20.3% |
| COc1cc2c(Nc3ccc(Br)cc3F)ncnc2cc1OCC1CCN(C)CC1 | active: 5.96 µM | – |
| Cc1ccc2c(Cl)cc(Cl)c(O)c2n1 | active: 2.37 µM | – |
| OCCSc1ccccc1 | inconclusive: 43.3 µM [cytotoxic, partial curve] | – |
| CCCCC(CC)COC(=O)CS (stereo not given) | inconclusive: 68.6 µM [cytotoxic, single point] | – |
| O=C1O[C@H]([C@@H](O)CO)C(O)=C1O | inconclusive: 23.7 µM [cytotoxic, partial curve, poor fit] and inactive and active: 21.7 µM | – |
| O=C(O)Cc1sc(-c2ccccc2)nc1-c1ccc(Cl)cc1 | inactive and inconclusive: 33.5 µM [cytotoxic, single point] | – |
